Reference: PubChem BioAssay AID1508624 (National Center for Advancing Translational Sciences (NCATS), 2021)
The campaign covered roughly 48,000 compounds. About 120 (0.25%) were called active. The inconclusive results got no clear call from the source; some entries with a clear call stand among them for comparison. Calls come from the whole dose curve; as a rule, active = well fitted activation curve with a large enough effect; inconclusive = small, poorly fitted or top-dose-only effect, or another doubt; inactive = no such curve, though single readings can be large or run the other way. Potencies beside an inconclusive call are fits to weak or partial responses and may not hold up.

Experiment: Primary qHTS for Identification of Small Molecule Activators of Huntingtin-Antisense Promoter Activity; note: nearly all actives have a fitted effect of over 55% in size
Settings: HEK293 HTT-AS promoter firefly luciferase reporter, 24 h; activity change, positive = activation: at 57.5 µM (top of the series), percent change from vehicle, -100% = no light unless noted
Method in brief: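 HEK293 luciferase promoter-reporter cells (2,500/well) plated 24 h, then compounds added at up to 57.5 uM final for 24 h at 37 °C. Firefly luminescence by Dual-Glo, normalized to vehicle (0%) and zero RLU (-100%).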
Potency is the fitted concentration of half-maximal effect; tags give direction and shape of the fitted curve.

Potency, inactive:
COc1ccc(Cl)cc1NC(=O)CSc1nc2ccccc2c2nc(-c3ccccc3)nn12
COc1cccc(NC(=O)c2nnn(Cc3cccc(C(F)(F)F)c3)c2N)c1
CCCOC(=O)c1c(NC(=O)c2cc3nc(-c4ccc(OC)cc4)cc(C(F)(F)F)n3n2)sc2c1CCCC2
CCOc1ccc(C2=C(C(=O)CC)Sc3nncn3N2C(=O)CC)cc1
O=C(Nc1ccc(Cl)cc1)c1cc(S(=O)(=O)N2CCCc3ccccc32)ccc1F
CC(=O)N1c2c(cc(Br)cc2S(=O)(=O)Nc2ccc(OC(F)(F)F)cc2)CC1C (stereo not given)
Cc1ccc(C)c(NC(=O)Cn2nnc(C(=O)NCc3ccco3)c2N)c1
CC1=C(C(=O)Nc2ccccc2)C(c2ccccc2Cl)n2ncc(C(=O)Nc3cccc(C)c3)c2N1 (stereo not given)
CC(=O)N[C@@H]1[C@H](O[C@@H]2c3ccc(c(Cl)c3)Oc3cc4cc(c3O[C@H]3O[C@H](CO)[C@@H](O)[C@H](O)[C@H]3NC(=O)CCCCCCCC(C)C)Oc3ccc(cc3Cl)C[C@H]3NC(=O)[C@H](N)c5ccc(O)c(c5)Oc5cc(O)cc(c5)[C@H](NC3=O)C(=O)N[C@H]4C(=O)N[C@H]3C(=O)N[C@@H]2C(=O)N[C@@H](C(=O)O)c2cc(O)cc(O[C@H]4O[C@H](CO)[C@@H](O)[C@H](O)[C@H]4O)c2-c2cc3ccc2O)O[C@H](CO)[C@@H](O)[C@@H]1O
CCc1ccc(NC(=O)Cn2nnc(C(=O)Nc3cc(C)ccc3OC)c2N)cc1
CCc1ccc(NC(=O)c2ccc3c(c2)c(C)c(C)n3Cc2ccccc2)cc1
Cc1cccn2c(=O)c3cc(C(=O)NC(C)(C)C)n(C)c3nc12

Potency, inconclusive:
COc1cccc2cc(-c3nnc(Nc4ccccc4C)s3)c(=O)oc12 501 nM [activator, full curve]
NC(=O)c1c(NC(=O)c2noc3c2CCCC3)sc2c1CCCC2 1000 nM [activator, full curve]
CC(O)=C(C#N)C(=O)Nc1ccc(C(F)(F)F)cc1 1090 nM [activator, partial curve]
O=C(Nc1ccccc1C(F)(F)F)c1cc(-c2ccc3c(c2)OCCO3)on1 1780 nM [activator, full curve]
Cc1ccc(C2CCN(C(=O)Nc3ccc(Cl)cc3)C2)cc1 (stereo not given) 5010 nM [activator, partial curve, poor fit]
COc1ccccc1-c1noc(-c2ccc(NCc3ccco3)c([N+](=O)[O-])c2)n1 2510 nM [activator, full curve]
CC1CCN(C(=O)CSc2nnc(-c3ccccc3)o2)CC1 20000 nM [activator, partial curve, poor fit]
O=C(Nc1nc2ccc(Cl)cc2s1)c1cc(=O)c2ccccc2o1 1000 nM [activator, full curve]
COc1ccc(-c2cn3nc(N4CCCC(C(=O)Nc5cccc(OC)c5)C4)sc3n2)cc1 (stereo not given) 2820 nM [activator, partial curve, poor fit]
CCN(CC)c1ccc2cc(-c3nc(-c4cccs4)no3)c(=O)oc2c1 891 nM [activator, full curve]
CN1CCc2nc3sc(C(=O)Nc4c(F)cccc4F)c(N)c3cc2C1 17800 nM [activator, partial curve]
CS(=O)(=O)c1ccc(-c2cn3ccccc3n2)cc1 35500 nM [activator, single point]
Cc1ccccc1-c1nnc(SCC(=O)N2CCCc3ccccc32)o1 28200 nM [activator, single point]
COCCn1c(=NC(=O)c2ccc3c(c2)OCCO3)sc2cc(NC(C)=O)ccc21 28200 nM [activator, single point]
CCN(CC)CCOC(=O)c1ccc(NC(=O)c2cc3cccc(OC)c3oc2=O)cc1 12600 nM [activator, partial curve, poor fit]
O=C(NCCN1CCCCC1)c1ccc(Cn2c(SCc3ccc(F)cc3)nc3cccnc32)cc1 10000 nM [activator, partial curve]
Cc1ccc(-n2ncc3c(N(CCO)Cc4ccccc4)ncnc32)cc1 2820 nM [activator, partial curve, poor fit]
Cc1ccc(NC(=O)CCc2c(C)nn(-c3ccc(N4CCOCC4)nn3)c2C)cc1F 12600 nM [activator, partial curve]
CCc1ccc(NC(=O)c2oc3c(c2C)-c2[nH]ncc2CC3)cc1 1780 nM [activator, full curve, poor fit]
COc1ccc(OC)c(-n2nnc(-c3nc(-c4ccc5c(c4)OCO5)no3)c2C)c1 4470 nM [activator, single point]
Cc1noc(-c2ccc(N(C)Cc3ccccc3)c([N+](=O)[O-])c2)n1 2820 nM [activator, single point]
O=C(Nc1cccc(C(=O)N2CCN(c3ccccc3)CC2)c1)c1nsc2ccccc12 1000 nM [activator, partial curve, poor fit]

Activity change, positive = activation, inconclusive:
COc1ccc(NC(=O)Cn2nnc(C(=O)NCc3ccc4c(c3)OCO4)c2N)cc1 -43.2% [activator]
CCOc1ccc(NC(=O)Cn2c(=O)c(CNc3ccc(OC)cc3)cc3ccc(OC)cc32)cc1 27.8% [activator]
Cc1cccc(Cn2c(-c3cccs3)nc3ccccc32)c1 -38.1% [activator]
COc1ccc(-c2cc(C(=O)OCC(=O)c3cccc(OC)c3)c3cccc(Cl)c3n2)cc1 17.5% [activator]
Cc1nn(C)c2c1c(C(F)(F)F)cc(=O)n2C(C)C(=O)N1CCN(c2ccccc2)CC1 (stereo not given) 1.61% [activator]
CCOC(=O)CCN(c1ccccc1)S(=O)(=O)c1ccc2[nH]c(=O)ccc2c1 -69.6% [activator]
